Data on 24 molecules can be found in ChEMBL document CHEMBL4888484, “Replenishing the malaria drug discovery pipeline: Screening and hit evaluation of the MMV Hit Generation Library 1 (HGL1) against asexual blood stage Plasmodium falciparum ,using a nano luciferase reporter read-out” (2022).

Out of some 150,000 compounds screened, about 540 (0.36%) showed an effect of 50% or more. Some of the results follow.

By % Inhibition is commonly meant the change of the read-out against control, counted positive when it falls.

This assay deals with Plasmodium falciparum. The assay can be described thus: Primary screen in NF54 nanoGlo assay, in single point, at 2uM, 72h; a lower Z score goes with more inhibition. The format is functional, Erythrocyte. The following applies: timepoint 72 hour.
Regarding `Cc1n[nH]c(C)c1CNCC(=O)NCc1ccco1`, the “% Inhibition” value is listed as -3% and the Z score is on record as 0.58.

Consider `Cc1nn(Cc2ccccc2)c(Cl)c1CN1CCC[C@H]1C(=O)O`, for which the “% Inhibition” value was -2% and the Z score is reported as 0.26.

As to `CCc1cc(C(=O)Nc2cccc(F)c2)c2c(C3CC3)nn(-c3ccccc3)c2n1`, the “% Inhibition” value came out at 30% and the Z score is -3.37.

With `Cc1ccc(NC(=O)Cn2cnc3nc(N4CCCC4)sc3c2=O)cc1Cl`, the “% Inhibition” value is recorded as -10% and the Z score stood at 1.64.

Take `O=C(CNc1ccc(Cl)cc1F)NC[C@H]1CCS(=O)(=O)C1`: the “% Inhibition” value is given as -2% and the Z score is 0.25.

As to `O=C(Cn1nc(N2CCCCCC2)c2ccccc2c1=O)Nc1ccc2c(c1)OCCO2`, the “% Inhibition” value is reported as -12% and the Z score came out at 1.79.

`O=C(NCC(F)F)Nc1ccncc1F`: the “% Inhibition” value is listed as -1% and the Z score was 0.13.

For the molecule `CCNC(=O)N(Cc1ccc(OC)c(OS(=O)(=O)c2ccc(F)cc2)c1)Cc1ccco1`, the “% Inhibition” value is -21% and the Z score is 3.03.

Turning to `CC1CC(N(C)CCn2cccn2)CCN1Cc1ccccc1` (stereo not drawn), the “% Inhibition” value is -2% and the Z score amounted to 0.21.

As for `CCOC1CC(CO)(NCc2ccc(C)o2)C1(C)C` (stereo not drawn), the “% Inhibition” value is recorded as -11% and the Z score was 1.26.

Regarding `Cc1noc(-c2ccc3c(c2)OCO3)c1C(=O)NCCC(c1ccccc1)c1ccccc1`, the “% Inhibition” value was -8% and the Z score was 0.81.

Take `COc1ccc(C(=O)Nc2cnn(CC(=O)N3CCOC(C)(C)C3)c2)nc1`: the “% Inhibition” value is -13% and the Z score was 1.58.

Take `Cc1noc2ncnc(N[C@@H](Cc3ccccn3)c3ccccc3)c12`: the “% Inhibition” value was -1% and the Z score is listed as 0.12.

`CC(CNC(=O)C(=O)NC(C)CCc1ccccc1)Cc1ccccc1` (stereo not drawn): the “% Inhibition” value is listed as -11% and the Z score was found to be 1.26.

For `Cc1cc(C)c(CN[C@@H]2c3ccccc3C[C@@H]2O)c(C)c1`, the “% Inhibition” value came to 2% and the Z score is -0.21.

For the molecule `CC1CCN(Cc2ccc(C(=O)N[C@H]3CC(=O)N(C)C3)o2)CC1`, the “% Inhibition” value is on record as 14% and the Z score is -1.89.

`COc1ccc(NC(=O)CN2CCN(c3ccccc3F)C2=O)cc1Cl`: the “% Inhibition” value was 1% and the Z score was -0.08.

On to `CC(C)(OCC(=O)N1Cc2ccc(O)cc2C2(CC2)C1)C(F)(F)F`, for which the “% Inhibition” value is on record as -2% and the Z score was found to be 0.22.

For the molecule `CCN(CC)CC1(n2cnc3cc(C)ccc3c2=O)CC1`, the “% Inhibition” value was found to be 7% and the Z score was -1.38.

As for `CC1CCCCC1CN1CCC(C#N)CC1` (stereo not drawn), the “% Inhibition” value is reported as -3% and the Z score is 0.48.

Regarding `Cc1nnc2ccc(N3CCCCCCC3)nn12`, the “% Inhibition” value is listed as 6% and the Z score is listed as -0.66.

For `COc1ccc(-c2cn3c4ccccc4nc3n2CCCN2CCCC2)cc1`, the “% Inhibition” value is -1% and the Z score was determined as 0.14.

As to `CC(=O)N[C@@H]1CC[C@H]2CCOc3ccccc3C(=O)N3CCN(C4CCC(C)CC4)C[C@H]3C(=O)NC[C@H]1O2` (stereo partly drawn), the “% Inhibition” value amounted to 7% and the Z score is reported as -0.83.

For `CNS(=O)(=O)[C@H]1CCCN(Cc2cccc3nsnc23)C1`, the “% Inhibition” value is recorded as -14% and the Z score is recorded as 1.53.
